Experimental data as given in ChEMBL document CHEMBL4888484, “Replenishing the malaria drug discovery pipeline: Screening and hit evaluation of the MMV Hit Generation Library 1 (HGL1) against asexual blood stage Plasmodium falciparum ,using a nano luciferase reporter read-out” (2022).
About 540 (0.36%) of roughly 150,000 compounds showed an effect of 50% or more. The list shows a part of the results.

What follows are molecules tested on Plasmodium falciparum (assay: Primary screen in NF54 nanoGlo assay, in single point, at 2uM, 72h; a lower Z score goes with more inhibition). Conditions: timepoint 72 hour.
Assay type: functional, Erythrocyte

Row | SMILES | % Inhibition [%] | Z score
1 | COc1ccc(N2CCC3(CC2)NCCc2[nH]cnc23)cc1 | -30 | 3.97
2 | OCCN1CCN(c2nc3nonc3nc2NCc2cccs2)CC1 | -4 | 0.58
3 | COc1cc(-c2nnsc2-c2nc3ccccc3[nH]2)cc(OC)c1OC | -12 | 2.13
4 | Brc1ccccc1C1(CNc2ncccn2)CC1 | -5 | 0.81
5 | CC(C)c1ccc(CN2C[C@@H](CN3CCN(C)CC3)[C@@H](CO)C2)cc1 | 8 | -1.26
6 | CC(C)(CO)CN1CCC[C@H](N2CCc3ccccc3C2)C1 | -9 | 1.13
7 | CCC(=O)NCC(=O)N1CCCC2(CCCCCC2)C1 | -2 | 0.23
8 | CN(C)c1nccc(CN2CCC[C@H]2C(=O)NCC2CCCCC2)n1 | -15 | 1.57
9 | N#Cc1ccccc1Cn1nc(-c2ccco2)n(C2CC2)c1=O | -21 | 2.38
10 | CS(=O)(=O)N1CCC(C(=O)N[C@]2(CO)COc3ccccc3C2)CC1 | -3 | 0.41
11 | Cc1cc(C(=O)N2CC[C@H](N)C2)c2cc(Br)ccc2n1 | 4 | -0.57
12 | CCCCN1CCc2[nH]cnc2[C@H]1c1cc(C)ccc1-n1cccn1 | -8 | 0.74
13 | Cc1ccc(OC/C=C/Cn2ccnc2)cc1C | -5 | 0.58
14 | CCOc1ccc(CNC(=O)[C@H]2CCCN(c3nccnc3Oc3ccc(C)cc3)C2)cc1OCC | 6 | -0.68
15 | O=C(NCc1cccc(CO)c1)C1CCCCC1C(F)(F)F (configuration not stated) | 0 | -0.04
16 | CCN1c2cc(C)ccc2-n2cccc2C12CCN(C(=O)Nc1ccc(Br)cc1F)CC2 | -16 | 3.06
17 | COc1ncccc1CNc1c(C#N)cnc2c(C)cccc12 | -10 | 1.53
18 | Cc1cccc2c1ncn1c(=O)n(CC(=O)Nc3ccc4c(c3)OCCO4)nc21 | -1 | 0.17
19 | CCOCC1(CNC(=O)[C@H](C)N2CCCC2=O)CCC1 | 3 | -0.56
20 | Cc1cnc(NC(=O)NC[C@H]2CCCO2)s1 | -2 | 0.38
21 | CN(Cc1cn(C)nn1)C(=O)NCc1cc(Cl)sc1Cl | -12 | 2.13
22 | CC(C)N(C)c1ccc(C=Cc2cnc(C(=O)O)cn2)cn1 | -1 | 0.18

Row | SMILES | % Inhibition [%] | Z score
23 | CN(CC#CCNC(=O)NC(C)(C)C)Cc1ccccc1 | 6 | -0.91
24 | CCc1ncc(C(=O)N2CCN(S(C)(=O)=O)CC2)cn1 | -5 | 0.83
25 | CCOCCCC(=O)N[C@@H](c1ccccc1)c1ccc2nc(C(F)(F)F)[nH]c2c1 | 11 | -1.97
26 | Cc1nnc(CNS(=O)(=O)c2ccc(C(=O)N3CCC[C@@H]3C)cc2)o1 | -2 | 0.3
27 | CCCCCNC(=O)c1cccc(Oc2ccnc(-c3cccc(F)c3)n2)c1 | -3 | 0.62
28 | Cc1ncccc1CNC(=O)Nc1ccnn1[C@@H](C)CC(C)C | -8 | 1.02
29 | CCC(C)c1nc(C2CC(=O)N(Cc3ccccc3)C2)no1 (configuration not stated) | -3 | 0.48
30 | CCc1cc(CNc2nc3c(cc2C(N)=O)CCC3)on1 | -4 | 0.51
31 | O=C(NCCc1nccn1C(F)F)C(=O)Nc1c(F)cccc1F | -3 | 0.57
32 | CC(C)[C@@H](O)CN1CCC2(CCc3ccccc3C2=O)CC1 | 2 | -0.37
33 | Cc1cccc(NC(=O)[C@]2(C)CCCCC(=O)N2)c1 | 4 | -0.45
34 | COc1cccc(NC(=O)O[C@H]2COCCN(c3nc4ccccc4o3)C2)c1 | 18 | -2.15
35 | Cn1cnnc1[C@@H]1CCCCN1C(=O)CCc1c[nH]c2ccccc12 | -3 | 0.38
36 | O=C(c1cn2cccnc2n1)N1CCC[C@H](c2[nH]ncc2Cc2ccccc2)C1 | -7 | 1.35
37 | CCNS(=O)(=O)C1CCN(C(=O)NC2C3CCc4ccccc4C32)C1 (configuration not stated) | 0 | -0.04
38 | COc1ccccc1CNC(=O)c1ccc(S(=O)(=O)c2ccc(C)cc2)s1 | -6 | 0.57
39 | CCC(=O)Nc1cc(C(=O)OC)cc(C(=O)OC)c1 | -9 | 1.08
40 | CCN(C(=O)NC[C@H]1COc2ccccc2O1)C1CCCC1 | -10 | 1.35
41 | CC[C@@H]1C(=O)NCCCN1Cc1nnc(-c2ccc(Cl)cc2)n1C | -1 | 0.15
42 | COc1cc(C(=O)N(Cc2ccccc2C(F)(F)F)C2COC2)ccc1OC(F)F | -7 | 0.63
43 | Cc1nc(C(C)C)oc1C(=O)N1CCC(OC2CCC2)CC1 | -7 | 0.73
44 | Cc1ccccc1Cc1nc([C@H]2CCOC2)nn1CCO | 6 | -0.79

Row | SMILES | % Inhibition [%] | Z score
45 | CC(NCC(C)(C)C)C(C)n1cccn1 (configuration not stated) | -1 | 0.12
46 | CNc1cc(C)nc(N2C[C@H](NS(C)(=O)=O)[C@@H](C(C)C)C2)n1 | -7 | 0.88
47 | CCOC(=O)N1CCN(C(=O)c2c(-c3ccc(Cl)cc3)c3cc(Cl)ccc3n2C)CC1 | -6 | 0.9
48 | Cc1cc(NS(=O)(=O)c2cnn3c2OCC(C)(C)C3)cnc1C | -2 | 0.42
49 | CC(C)CC(=O)Nc1nc(C(=O)N(C)CCN(C)C)cs1 | -12 | 2.04
50 | Fc1cc(Cl)ccc1OC[C@@H]1CCCN2CCCC[C@H]12 | 17 | -2.29
51 | COC[C@](C)(O)C(=O)NCC1CCCCCCC1 | -4 | 0.58
52 | Cc1ccc(CCC(=O)N2CCC2)c(C)c1 | -8 | 0.89
53 | O=C(c1ccco1)N1CCC(c2nc3ccccc3o2)CC1 | -26 | 2.26
54 | CC1CN(CC(C)(C)F)CCC1NC(=O)OC(C)(C)C (configuration not stated) | -7 | 1.2
55 | O=C(NC1CCCCCC1)NC1CCCCCC1 | -4 | 0.65
56 | COc1ccc(CC[C@H](C)N2CCN(c3cccc(C)c3C)CC2)cc1 | 1 | -0.09
57 | Cn1ccc(C2CCN(c3ccc(C(N)=O)nn3)CC2)n1 | -16 | 2.69
58 | O=C(c1cncc(F)c1)N(C1CCCCC1)[C@H]1CCS(=O)(=O)C1 | 0 | 0.01
59 | O=C1N(CC2CC2)CCC[C@@]12CCN(Cc1cc3ccccc3o1)C2 | 7 | -0.89
60 | CN(C)c1ccc(/C=C2/CCCC3C2=NN(c2ccccc2)C3c2ccccc2)cc1 (configuration not stated) | -1 | 0.17
61 | Cc1cc(C)nc(NC(=O)c2cnn(-c3cccnc3)c2)c1 | -3 | 0.5
62 | CCc1cnc(CN(C)C(=O)N[C@@H](CC)c2nc(C)cs2)s1 | -20 | 1.66
63 | CC(=O)NCCC(=O)Nc1ccc(C)c(Cl)c1 | -3 | 0.41
64 | C[C@@H](CCC(=O)NC1(c2cc(F)cc(F)c2)CC1)N1CCCC1 | -14 | 1.36
65 | Cc1cc(C)nc(-n2[nH]c(C(=O)N(C)[C@@H](C)c3ccccc3)c(CCO)c2=O)n1 | -12 | 2.02
66 | CCCn1cc(NC(C)CC2COCCN2C(=O)OC(C)(C)C)cn1 (configuration not stated) | -8 | 0.71

Row | SMILES | % Inhibition [%] | Z score
67 | Cc1ncsc1CCS(=O)(=O)C[C@H]1CCCO1 | -7 | 0.84
68 | CCc1ccc(-c2nccn2CCc2nc(C)c(C)s2)nc1 | 4 | -0.46
69 | COC1CS(=O)(=O)CC1NC(=O)Nc1cnc(CC2CC2)nc1 (configuration not stated) | -9 | 1.43
70 | CCc1cc(NC(=O)c2c(CC)noc2C)nc(C)n1 | 14 | -1.74
71 | COc1cc(=O)n(-c2ccccc2)cc1C(=O)NC1CC2CCC(C1)N2S(C)(=O)=O (configuration not stated) | -26 | 4.38
72 | CC1(C)CCC[C@@]2(C1)NC(=O)N(CC(=O)Nc1ccc3c(c1)CCC(=O)N3)C2=O | -11 | 1.4
73 | O=C(O)c1cccc(N[C@H]2CCN(S(=O)(=O)c3ccccc3)C2)n1 | -17 | 3.2
74 | Cc1ccccc1CNC(=O)N1CC[C@]2(CC(=O)NC2=O)C1 | -9 | 1.3
75 | CC(CNC(C)c1ccc(-n2cnnn2)cc1)c1cccs1 (configuration not stated) | -14 | 1.16
76 | COc1ccc(OCCNC2CCCC(C)C2C)cc1 (configuration not stated) | 2 | -0.24
77 | CCCc1ccc(S(=O)(=O)N2CCN(Cc3nc4cccnc4n3-c3ccc(C)cc3)CC2)cc1 | -13 | 1.73
78 | O=C(Nc1cccc(Cl)c1)C(=O)c1cccn1Cc1ccccc1 | 8 | -1.38
79 | COc1ccc2[nH]c3c(c2c1)CCN(C(=O)Nc1cc(C)ccc1OC)[C@@H]3c1ccc(C)cc1 | 12 | -1.43
80 | CC(C)C(Cn1cccn1)NCC1CCCN1CCc1ccccc1 (configuration not stated) | -9 | 1.06
81 | CN(CC1(CO)CCOCC1)C(=O)Nc1cccc(-c2cnc[nH]2)c1 | -16 | 1.6
82 | Cc1nscc1C(=O)N1CCC[C@H](NCc2ccccc2)C1 | -12 | 1.6
83 | CNC(=O)[C@@H](C)CN(C)Cc1ccccc1-c1ccnn1C | -16 | 1.77
84 | COc1ccc(-c2nc(C)c(C(=O)NCc3c(C)nn(C)c3C)s2)cc1OC | -15 | 1.83
85 | Cc1nonc1CN(C)c1ccc(-c2nc(-c3cccc(Cl)c3)no2)cn1 | -23 | 2.17
86 | CN(CCN1C(=O)NC2(CCCC2)C1=O)[C@H]1CCN(CC(F)(F)F)C1=O | -8 | 1.06
